# Data as given in the supplement of paper PMC7826260.
# The other results are listed elsewhere or left out. The data describe in vitro nicking of single-stranded DNA by Rep domains (3 µM enzyme, 1 h, 37 °C); shown is the middle of each 90-letter strand. Numbers give uncut DNA relative to the enzyme-free pool, as log2; uncut sequences lie near 0, cut ones below; no hit call is given. The scaling is to total reads; values above 0 arise when much of the pool is cut.
# System: T1, Rep nickase domain of tomato golden mosaic virus
# T1 sequence (residues 1-124 of Rep, tag left off): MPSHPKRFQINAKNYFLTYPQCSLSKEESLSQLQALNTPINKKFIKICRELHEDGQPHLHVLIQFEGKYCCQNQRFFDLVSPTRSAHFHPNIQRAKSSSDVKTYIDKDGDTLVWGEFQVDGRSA
# Test: uncleaved DNA left, log2 of reads against the no-enzyme library (log2 ratio); higher = less cleavage (more negative = more Rep cleavage of the k-mer); sequences stand for … in CTCGTCCG…ACCGGAGA
# Protocol: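 A pool of 90-nt single-stranded DNAs with seven random bases just before the constant AC of the nick site (name = the seven bases) was cut by 3 µM recombinant His6-SUMO-tagged Rep nickase domain (300 nM DNA, 50 mM HEPES pH 8.0, 50 mM NaCl, 1 mM MnCl2, 1 h, 37 °C, three replicates). Uncut DNA was amplified and sequenced.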
row,Sequence,uncleaved DNA left (log2)
1,TGGAAAC,0.101
2,ATTCAAA,0.209
3,CGGTTCA,0.027
4,TTCGCCG,-0.276
5,TACGTCA,0.0213
6,GGGGCAA,0.15
7,GCACATA,-0.12
8,ACCCCGA,-0.0427
9,ATGGTCG,-0.237
10,GGAGGAG,0.0891
11,TGTCTGA,-0.0305
12,TATTAAG,-0.0954
13,GTGATCT,0.107
14,ATGTAAA,0.167
15,CGCACAG,-0.0908
16,TAATCTG,-0.0162
17,CGTAAGT,0.0146
18,TGTAATA,0.121
19,GTCGCCC,-0.0402
20,CCGGTCA,-0.027

row,Sequence,uncleaved DNA left (log2)
1,CAGAACG,-0.0848
2,GGCGCGC,-0.092
3,ACTAGTC,0.0637
4,CAGAATT,-0.144
5,CCCGACC,0.0233
6,AATCCGA,-0.113
7,ACCTAGC,0.00367
8,TAGACAA,0.0613
9,AAATCGC,-0.226
10,TGCGTAA,-0.0113
11,ACTGAAC,-0.0115
12,ACTCATA,0.0712
13,TTTGTTG,-0.129
14,GTATCAA,0.0865
15,GCTCGCC,-0.085
16,CGGACGT,-0.0222
17,GCTTTGA,0.0576
18,ACTACAT,-0.0394
19,GGGTTGG,0.0248
20,TTATCAG,-0.00343
